Tested on: Huh7 cells that stably maintain a subgenomic HCV replicon (S22.3 cell-line)
Assay: Cell based HCV RNA replication assay (S22.3 replicon cells, real-time RT-PCR)
Settings: Hepatitis C virus
[1] = Huh-7, 72 h, S22.3 cells, 72 hours incubation, HCV RNA by RT-PCR

Row | Structure (SMILES) | EC50 (Huh-7, Table 6) [nM] | EC50 [1] [nM] | other results
1 | Cn1c(-c2csc(NCC3CCCO3)n2)c(C2CCCC2)c2ccc(C(=O)NC(C)(C)C(=O)Nc3ccc(/C=C/C(=O)O)cc3)cc21 (centres unmarked) [Entry 6021] | < 500 |  | 
2 | O=C(O)/C=C/c1ccc(NC(=O)C2(NC(=O)c3ccc4c(C5CCCCC5)c(-c5ccccc5)[nH]c4c3)CCCC2)cc1 [Entry 2035] |  | < 500 | 
3 | CC(=O)Nc1ccc(-c2c(C3CCCCC3)c3ccc(C(=O)NC(C)(C)C(=O)Nc4ccc(/C=C/C(=O)O)cc4)cc3n2C)cc1C [Entry 2104] |  | < 500 | 
4 | CCc1ccnc(-c2c(C3CCCC3)c3ccc(C(=O)NC4(C(=O)Nc5ccc(/C=C(\C)C(=O)O)cc5)CCC4)cc3n2C)c1 [Entry 7044] |  |  | EC50 (Huh-7, Table 7): 500 to 5000 nM
5 | Cn1c(-c2ccc(N)cc2)c(C2CCCC2)c2ccc(C(=O)NC3(C(=O)Nc4ccc(-c5ccc(C(=O)O)o5)cc4)CCCC3)cc21 [Entry 7017] |  |  | EC50 (Huh-7, Table 7): < 500 nM
6 | Cn1c(-c2csc(NC(=O)C(C)(C)C)n2)c(C2CCCC2)c2ccc(C(=O)NC(C)(C)C(=O)Nc3ccc(/C=C/C(=O)O)cc3)cc21 [Entry 6029] | < 500 |  | 
7 | Cc1cccc(-c2c(C3CCCC3)c3ccc(C(=O)NC4(C(=O)Nc5ccc(-c6ccc(C(=O)O)o6)cc5)CCC4)cc3n2C)n1 [Entry 7020] |  |  | EC50 (Huh-7, Table 7): < 500 nM
8 | CC(C)N1CCC(NC(=O)c2ccc3c(C4CCCCC4)c(-c4ccoc4)[nH]c3c2)(C(=O)Nc2ccc(/C=C/C(=O)O)cc2)CC1 [Entry 2086] |  | < 500 | 
9 | CC(=O)Nc1ccc(-c2c(C3CCCC3)c3ccc(C(=O)NC4(C(=O)Nc5ccc(/C=C/C(=O)O)cc5)CCC4)cc3n2C)cc1C [Entry 6006] | < 500 |  | 
10 | Cn1c(-c2ccccn2)c(C2CCCC2)c2ccc(C(=O)NC3(C(=O)Nc4ccc(S(N)(=O)=O)cc4)CCC3)cc21 [Entry 7068] |  |  | EC50 (Huh-7, Table 7): < 500 nM
11 | C[C@@H](NC(=O)c1ccc2c(C3CCCCC3)c(-c3ccoc3)[nH]c2c1)C(=O)Nc1ccc(/C=C/C(=O)O)cn1 [Entry 2009] |  | 500 to 5000 | 
12 | Cc1ccc(-c2c(C3CCCC3)c3ccc(C(=O)NC4(C(=O)Nc5ccc(/C=C/C(=O)O)cc5)CCCC4)cc3n2C)cn1 [Entry 6061] | < 500 |  | 
13 | Cn1c(-c2ccoc2)c(C2CCCCC2)c2ccc(C(=O)NC3(C(=O)Nc4ccc(/C=C/C(=O)O)cc4)CCCC3)cc21 [Entry 2006] |  | < 500 | 
14 | Cn1c(-c2csc(NCCN3CCCCC3)n2)c(C2CCCC2)c2ccc(C(=O)NC3(C(=O)Nc4ccc(/C=C/C(=O)O)cc4)CCC3)cc21 [Entry 6078] | < 500 |  | 
15 | Cc1ccc(-c2c(C3CCCC3)c3ccc(C(=O)NC4(C(=O)Nc5ccc6c(c5)cc(C(=O)O)n6C)CCC4)cc3n2C)nc1 [Entry 7031] |  |  | EC50 (Huh-7, Table 7): < 500 nM
16 | Cn1c(-c2ccccn2)c(C2CCCCC2)c2ccc(C(=O)NC3(C(=O)Nc4ccc5[nH]c(C(=O)O)c(I)c5c4)CCCNC3)cc21 (centres unmarked) [Entry 2110] |  | < 500 | 
17 | Cc1c(C(N)=O)sc2ccc(NC(=O)C3(NC(=O)c4ccc5c(C6CCCCC6)c(-c6ccccn6)n(C)c5c4)CCC3)cc12 [Entry 2112] |  | < 500 | 
18 | CCN1CCC(NC(=O)c2ccc3c(C4CCCCC4)c(-c4ccccn4)n(C)c3c2)(C(=O)Nc2ccc(-c3ccc(C(=O)O)nc3)cc2)CC1 [Entry 2101] |  | < 500 | 
19 | Cc1c(C(=O)O)sc2ccc(NC(=O)[C@]3(NC(=O)c4ccc5c(C6CCCC6)c(-c6ccccn6)n(C)c5c4)CCN(C)C3)cc12 [Entry 1013] |  | < 500 | 
20 | Cn1c(-c2ccccn2)c(C2CCCC2)c2ccc(C(=O)NC3(C(=O)Nc4ccc5oc(C(=O)O)cc5c4)CCC3)cc21 [Entry 7006] |  |  | EC50 (Huh-7, Table 7): < 500 nM

Row | Structure (SMILES) | EC50 (Huh-7, Table 6) [nM] | EC50 [1] [nM] | other results
21 | Cn1c(-c2cocn2)c(C2CCCC2)c2ccc(C(=O)NC3(C(=O)Nc4ccc(/C=C/C(=O)O)cc4)CCCC3)cc21 [Entry 6098] | < 500 |  | 
22 | CN1CC[C@@](NC(=O)c2ccc3c(C4CCCCC4)c(-c4ccccn4)n(C)c3c2)(C(=O)Nc2ccc(/C=C/C(=O)O)cc2)C1 [Entry 2116] |  | < 500 | 
23 | Cc1nc(-c2ccc(C(=O)O)s2)ccc1NC(=O)C1(NC(=O)c2ccc3c(C4CCCC4)c(-c4ccccn4)n(C)c3c2)CCC1 [Entry 7066] |  |  | EC50 (Huh-7, Table 7): 500 to 5000 nM
24 | Cn1c(-c2ccccn2)c(C2CCCCC2)c2ccc(C(=O)NC(C)(C)C(=O)Nc3ccc(N)cc3)cc21 [Entry 2072, 3-Cyclohexyl-1-methyl-2-pyridin-2-yl-1H-indole-6-carboxylic acid[1-(4-amino-phenylcarbamoyl)-1-methyl-ethyl]-amide] |  | < 500 | 
25 | Cn1c(-c2csc(N)n2)c(C2CCCC2)c2ccc(C(=O)NC3(C(=O)Nc4ccc(/C=C/C(=O)O)cc4)CCC3)cc21 [Entry 6074] | < 500 |  | 
26 | Cn1c(-c2csc(-c3ccccc3)n2)c(C2CCCC2)c2ccc(C(=O)NC(C)(C)C(=O)Nc3ccc(/C=C/C(=O)O)cc3)cc21 [Entry 6012] | < 500 |  | 
27 | Cn1c(-c2ccccn2)c(C2CCCCC2)c2ccc(C(=O)NC(C)(C)C(=O)Nc3ccc(-c4nc(C(N)=O)cs4)cc3)cc21 [Entry 2074] |  | < 500 | 
28 | O=C(O)/C=C/c1ccc(NC(=O)C2(NC(=O)c3ccc4c(C5CCCCC5)c(-c5ccsc5)[nH]c4c3)CCCC2)cc1 [Entry 2038] |  | < 500 | 
29 | Cn1c(-c2ccoc2)c(C2CCCCC2)c2ccc(C(=O)NC(C)(C)C(=O)Nc3ccc(/C=C/C(=O)O)cc3)cc21 [Entry 2051] |  | < 500 | 
30 | Cn1c(-c2csc(-c3ccncc3)n2)c(C2CCCC2)c2ccc(C(=O)NC(C)(C)C(=O)Nc3ccc(/C=C/C(=O)O)cc3)cc21 [Entry 6011] | < 500 |  | 
31 | CC(=O)Nc1nc(-c2c(C3CCCC3)c3ccc(C(=O)NC4(C(=O)Nc5ccc(/C=C/C(=O)O)cc5)CCC4)cc3n2C)cs1 [Entry 6071] | < 500 |  | 
32 | Cc1cccc(-c2c(C3CCCC3)c3ccc(C(=O)NC4(C(=O)Nc5ccc(/C=C/C(=O)O)cc5)CCN(C)CC4)cc3n2C)n1 [Entry 6058] | < 500 |  | 
33 | CN(C)CCNc1nc(-c2c(C3CCCC3)c3ccc(C(=O)NC(C)(C)C(=O)Nc4ccc(/C=C/C(=O)O)cc4)cc3n2C)cs1 [Entry 6035] | < 500 |  | 
34 | Cn1c(-c2ccc(N)cc2)c(C2CCCC2)c2ccc(C(=O)NC3(C(=O)Nc4ccc(-c5ccc(C(=O)O)o5)cc4)CCC3)cc21 [Entry 7016] |  |  | EC50 (Huh-7, Table 7): < 500 nM
35 | Cn1c(-c2cccc(N)c2)c(C2CCCC2)c2ccc(C(=O)NC3(C(=O)Nc4ccc(-c5ccc(C(=O)O)o5)cc4)CCCC3)cc21 [Entry 7013] |  |  | EC50 (Huh-7, Table 7): < 500 nM
36 | Cn1c(-c2csc(Nc3ccccn3)n2)c(C2CCCC2)c2ccc(C(=O)NC(C)(C)C(=O)Nc3ccc(/C=C/C(=O)O)cc3)cc21 [Entry 6015] | < 500 |  | 
37 | C/C(=C\c1ccc(NC(=O)C2(NC(=O)c3ccc4c(C5CCCC5)c(-c5cnccn5)n(C)c4c3)CCC2)cc1)C(=O)O [Entry 7038] |  |  | EC50 (Huh-7, Table 7): < 500 nM
38 | Cn1c(-c2csc(Nc3ccncc3)n2)c(C2CCCC2)c2ccc(C(=O)NC(C)(C)C(=O)Nc3ccc(/C=C/C(=O)O)cc3)cc21 [Entry 6022] | < 500 |  | 
39 | O=C(N[C@@H](Cc1c[nH]c2ccc(O)cc12)c1cscn1)c1ccc2c(C3CCCCC3)c(-c3ccccc3)[nH]c2c1 [Entry 1001] |  | < 500 | 
40 | C=CCn1c(C(=O)O)cc2cc(NC(=O)[C@@H](C)NC(=O)c3ccc4c(C5CCCCC5)c(-c5ccoc5)[nH]c4c3)ccc21 [Entry 2011] |  | 500 to 5000 | 

Row | Structure (SMILES) | EC50 (Huh-7, Table 6) [nM] | EC50 [1] [nM] | other results
41 | CC(=O)Nc1nc(-c2c(C3CCCC3)c3ccc(C(=O)NC(C)(C)C(=O)Nc4ccc(/C=C/C(=O)O)cc4)cc3n2C)cs1 [Entry 6008] | < 500 |  | 
42 | CC(C)(NC(=O)c1ccc2c(C3CCCCC3)c(-c3ccccn3)[nH]c2c1)C(=O)Nc1ccc(/C=C/C(=O)O)cc1 [Entry 2089] |  | < 500 | 
43 | CCCNc1nc(-c2c(C3CCCC3)c3ccc(C(=O)NC4(C(=O)Nc5ccc(/C=C/C(=O)O)cc5)CCC4)cc3n2C)cs1 [Entry 6076] | < 500 |  | 
44 | CCc1ccnc(-c2c(C3CCCC3)c3ccc(C(=O)NC4(C(=O)Nc5ccc6c(c5)cc(C(=O)O)n6C)CCC4)cc3n2C)c1 [Entry 7045] |  |  | EC50 (Huh-7, Table 7): 500 to 5000 nM
45 | Cn1c(-c2cscn2)c(C2CCCC2)c2ccc(C(=O)NC3(C(=O)Nc4ccc(/C=C/C(=O)O)cc4)CCCC3)cc21 [Entry 6085] | < 500 |  | 
46 | C/C(=C\C(=O)O)c1ccc(NC(=O)C2(NC(=O)c3ccc4c(C5CCCCC5)c(-c5ccoc5)[nH]c4c3)CCCC2)cc1 [Entry 2056] |  | < 500 | 
47 | Cn1c(-c2cocn2)c(C2CCCC2)c2ccc(C(=O)NC3(C(=O)Nc4ccc(/C=C/C(=O)O)cc4)CCC3)cc21 [Entry 6083] | < 500 |  | 
48 | Cn1c(-c2csc(N3CCCCC3)n2)c(C2CCCC2)c2ccc(C(=O)NC(C)(C)C(=O)Nc3ccc(/C=C/C(=O)O)cc3)cc21 [Entry 6016] | < 500 |  | 
49 | CN1CCC(NC(=O)c2ccc3c(C4CCCC4)c(-c4ccc(Cl)cn4)n(C)c3c2)(C(=O)Nc2ccc(/C=C/C(=O)O)cc2)CC1 [Entry 6050] | < 500 |  | 
50 | Cn1c(-c2ccccn2)c(C2CCCCC2)c2ccc(C(=O)NC(C)(C)C(=O)Nc3ccc(/C=C/C(=O)O)cc3)cc21 [Entry 2087] |  | < 500 | 
51 | C/C(=C\c1ccc(NC(=O)C2(NC(=O)c3ccc4c(C5CCCC5)c(-c5ccccn5)n(C)c4c3)CCC2)cc1)C(=O)O [Entry 7011] |  |  | EC50 (Huh-7, Table 7): < 500 nM
52 | Cn1c(-c2ccccn2)c(C2CCCC2)c2ccc(C(=O)NC3(C(=O)Nc4ccc(/C=C/C(=O)O)cc4)CCC3)cc21 [Entry 6064] | < 500 |  | 
53 | Cn1c(-c2csc(NC3CCCC3)n2)c(C2CCCC2)c2ccc(C(=O)NC(C)(C)C(=O)Nc3ccc(/C=C/C(=O)O)cc3)cc21 [Entry 6033] | < 500 |  | 
54 | Cn1c(-c2ccccn2)c(C2CCCC2)c2ccc(C(=O)NC3(C(=O)Nc4ccc(/C=C/C(=O)O)cc4)CCN(S(C)(=O)=O)CC3)cc21 [Entry 6125] | < 500 |  | 
55 | Cn1c(-c2ccccn2)c(C2CCCC2)c2ccc(C(=O)N[C@@]3(C(=O)Nc4ccc(-c5cnc(N)nc5)cc4)CCNC3)cc21 [Entry 7059] |  |  | EC50 (Huh-7, Table 7): 500 to 5000 nM
56 | CC(C)Cn1c(-c2ccoc2)c(C2CCCCC2)c2ccc(C(=O)NC(C)(C)C(=O)Nc3ccc(/C=C/C(=O)O)cc3)cc21 [Entry 2021] |  | 500 to 5000 | 
57 | Cn1c(-c2csc(NCCN3CCOCC3)n2)c(C2CCCC2)c2ccc(C(=O)NC(C)(C)C(=O)Nc3ccc(/C=C/C(=O)O)cc3)cc21 [Entry 6025] | < 500 |  | 
58 | Cn1c(-c2ccsc2)c(C2CCCC2)c2ccc(C(=O)NC3(C(=O)Nc4ccc(-c5ccc(C(=O)O)o5)cc4)CCC3)cc21 [Entry 7019] |  |  | EC50 (Huh-7, Table 7): < 500 nM
59 | Cn1c(-c2ccccn2)c(C2CCCC2)c2ccc(C(=O)NC3(C(=O)Nc4ccc(-c5cncnc5)cc4)CCC3)cc21 [Entry 7055] |  |  | EC50 (Huh-7, Table 7): 500 to 5000 nM

Source: US20060160798A1, “Viral polymerase inhibitors” (Boehringer Ingelheim (Canada) Ltd., priority 2001, published 2006)
